Measurements from patent USRE50631E1, “ROR1 antibody immunoconjugates” (VelosBio Inc., priority 2017, dated 2025).
Like-named read-outs stand apart in the source and are kept apart here.

Columns and labels:
MCF-7 = experiment: Cytotoxicity in vitro (CellTiter-Glo viability), MCF-7; format: cell-based, human
Mec-ROR = experiment: Cytotoxicity in vitro (CellTiter-Glo viability), Mec-ROR; details: read-out: EC50 (nM), cytotoxicity in vitro; Mec-ROR (CLL), 72 hours
Protocol: (§1) Cells were cultured in log phase growth and distributed into 96-well plates. Each cell line was plated at a slightly different cell density, ranging from 5×10^3 to 50×10^4 cells/well. Cells in duplicate were incubated with 3-fold serial dilution of a particular immunoconjugate (10, 3.33, 1.11, 0.37, 0.12, 0.041, 0.014, and 0.0045 μM) for 72 hours at 37° C. and 5% CO2. After treatment, cells were incubated with an equal volume of CellTiter-Glo® reagent (Promega Inc.) for 15 minutes at room temperature and viability was determined by a luminometer. Curves and EC50 values were generated in GraphPad Prism using a sigmoidal dose response non-linear regression fit.
(§2) Cells were grown and distributed into 96-well plates as described in Example 5. Cells in duplicate were incubated with 3-fold serial dilution of a particular immunoconjugate (660, 220, 73.3, 24.4, 8.14, 2.71, 0.91, and 0.3 nM) for 72 hours at 37° C. and 5% CO2. In some experiments, cells were incubated with an immunoconjugate for 96 hours instead of 72 hours (values highlighted with “*”). After treatment, cell viability was determined as described in Example 5. Cell surface ROR1 expression was assessed by quantitative flow cytometry and ROR1 expression was characterized as MFI>30 or MFI<30 (MFI: mean fluorescent intensity).
(§3) The MEC1 cell line, which is derived from B-chronic lymphocytic leukemia in prolymphocytoid transformation, was transfected with either an expression vector encoding human ROR1 or a control vector, and stable cell lines were created using selection media containing G418.

Mino = experiment: Cytotoxicity in vitro (CellTiter-Glo viability), Mino; format: cell-based, human; details: Mino (MCL), 72 hours
Jeko-1 MCL xenograft = experiment: Jeko-1 human MCL xenograft model (study 7); format: in vivo, mouse; details: 1 mg/kg ADC-N, ADC-P, ADC-R; 5 mg/kg ADC-A, ADC-L, ADC-M, ADC-S, ADC-T; IV Q4D
Protocol: Jeko-1 (MCL) cells were engrafted subcutaneously into mice. When tumor size reached 100 mm^3, the mice were randomized into nine groups, 9 mice/group. The groups were vehicle control; 1 mg/kg ADC-N, ADC-P or ADC-R; or 5 mg/kg ADC-A, ADC-L, ADC-M, ADC-S, or ADC-T. The mice were dosed IV q4d.

Mec-vector = experiment: Cytotoxicity in vitro (CellTiter-Glo viability), Mec-vector; details: read-out: EC50 (nM), cytotoxicity in vitro; Mec-vector (CLL), 72 hours
Protocol: as §1, §2, §3

MDA-MB-468 = experiment: Cytotoxicity in vitro (CellTiter-Glo viability), MDA-MB-468; details: read-out: EC50 (nM), cytotoxicity in vitro; MDA-MB-468 (TNBC), 72 hours
Protocol: ROR1 binding by these conjugates was tested in cell culture to define the potency of various linker-cytotoxic agent combinations. Three different types of cancer cell lines were tested: B-lymphoma cell-lines TMD-8, HBL-1, and DOHH2; triple negative breast cancer cell lines HCC1187, MDA-MB-468, Bt549; and ovarian cancer cell lines A2008, TOV112D, JHOM1, and SKOvr3.
as §1, §2

Jeko-1 = experiment: Cytotoxicity in vitro (CellTiter-Glo viability), Jeko-1; format: cell-based, human
H460 = experiment: Cytotoxicity in vitro (CellTiter-Glo viability), H460; format: cell-based, human; details: H460 (NSCLC), 72 hours
MDA-MB-231 = experiment: Cytotoxicity in vitro (CellTiter-Glo viability), MDA-MB-231; format: cell-based, human; details: MDA-MB-231 (TNBC), 72 hours
[1] = MCF-7 (Breast), 96 hours (values marked *)
[2] = Jeko-1 (MCL), 72 hours, read-out: EC50 (nM), cytotoxicity in vitro

Row | Molecule | EC50 (MCF-7; [1]) [nM] | EC50 (Mec-ROR) [nM] | EC50 (Mino) [nM] | tumor growth / average tumor size (interim results, day 14) (Jeko-1 MCL xenograft) | EC50 (Mec-vector) [nM] | EC50 (MDA-MB-468) [nM] | EC50 (Jeko-1; [2]) [nM] | EC50 (H460) [nM] | EC50 (MCF-7; MCF-7 (ER+/PR+/HER2− Breast), 72 hours) [nM] | EC50 (MDA-MB-231) [nM] | EC50 (Jeko-1) [nM]
1 | ADC-L: Ab1 conjugated via MAL-DPR-VC-PAB to MMAE (conjugate, non-natural residues) heavy: QVQLQESGPGLVKPSQTLSLTCTVSGYAFTAYNIHWVRQAPGQGLEWMGSFDPYDGGSSYNQKFKDRLTISKDTSKNQVVLTMTNMDPVDTATYYCARGWYYFDYWGHGTLVTVSS[skipping human IgG1 constant region] light: DIVMTQTPLSLPVTPGEPASISCRASKSISKYLAWYQQKPGQAPRLLIYSGSTLQSGIPPRFSGSGYGTDFTLTINNIESEDAAYYFCQQHDESPYTFGEGTKVEIKRTVAAPSVFIFPPSDEQLKSGTASVVCLLNNFYPREAKVQWKVDNALQSGNSQESVTEQDSKDSTYSLSSTLTLSKADYEKHKVYACEVTHQGLSSPVTKSFNRGEC | 232 | 192 | 20.5 | Significant tumor regression | 535 | 142 | 81.1 | – | – | – | –
2 | ADC-O: Ab1 conjugated via MAL-C2-Gly3-EDA to PNU-159682 (conjugate) heavy: QVQLQESGPGLVKPSQTLSLTCTVSGYAFTAYNIHWVRQAPGQGLEWMGSFDPYDGGSSYNQKFKDRLTISKDTSKNQVVLTMTNMDPVDTATYYCARGWYYFDYWGHGTLVTVSS[skipping human IgG1 constant region] light: DIVMTQTPLSLPVTPGEPASISCRASKSISKYLAWYQQKPGQAPRLLIYSGSTLQSGIPPRFSGSGYGTDFTLTINNIESEDAAYYFCQQHDESPYTFGEGTKVEIKRTVAAPSVFIFPPSDEQLKSGTASVVCLLNNFYPREAKVQWKVDNALQSGNSQESVTEQDSKDSTYSLSSTLTLSKADYEKHKVYACEVTHQGLSSPVTKSFNRGEC | – | 116 | 28 | – | 296 | 85.8 | 71.7 | 365 | 12.7 | 782 | –
3 | ADC-H (conjugate) heavy: QVQLQESGPGLVKPSQTLSLTCTVSGYAFTAYNIHWVRQAPGQGLEWMGSFDPYDGGSSYNQKFKDRLTISKDTSKNQVVLTMTNMDPVDTATYYCARGWYYFDYWGHGTLVTVSS[skipping human IgG1 constant region] light: DIVMTQTPLSLPVTPGEPASISCRASKSISKYLAWYQQKPGQAPRLLIYSGSTLQSGIPPRFSGSGYGTDFTLTINNIESEDAAYYFCQQHDESPYTFGEGTKVEIKRTVAAPSVFIFPPSDEQLKSGTASVVCLLNNFYPREAKVQWKVDNALQSGNSQESVTEQDSKDSTYSLSSTLTLSKADYEKHKVYACEVTHQGLSSPVTKSFNRGEC | – | – | – | – | – | – | – | – | – | – | 170
4 | ADC-R (conjugate) heavy: QVQLQESGPGLVKPSQTLSLTCTVSGYAFTAYNIHWVRQAPGQGLEWMGSFDPYDGGSSYNQKFKDRLTISKDTSKNQVVLTMTNMDPVDTATYYCARGWYYFDYWGHGTLVTVSS[skipping human IgG1 constant region] light: DIVMTQTPLSLPVTPGEPASISCRASKSISKYLAWYQQKPGQAPRLLIYSGSTLQSGIPPRFSGSGYGTDFTLTINNIESEDAAYYFCQQHDESPYTFGEGTKVEIKRTVAAPSVFIFPPSDEQLKSGTASVVCLLNNFYPREAKVQWKVDNALQSGNSQESVTEQDSKDSTYSLSSTLTLSKADYEKHKVYACEVTHQGLSSPVTKSFNRGEC | 167 | 44.6 | 15 | inhibition of tumor growth | 183 | 44.3 | 53.3 | 191 | – | 203 | –
